Test results as given in the supplement of paper PMC10338343.
± gives the standard deviation. This is a selection; strong and weak results do not stand in their true shares.

Test system: MIWI (PIWIL1) piRISC loaded with L1MC piRNA (30 nt)
Test: pre-steady-state target cleavage rate (min^-1); MIWI and MILI are mouse PIWI proteins and EfPiwi is from a freshwater sponge; tags in brackets are library labels; higher = faster piRNA-guided slicing of the target
Conditions: guide: L1MC piRNA 5'p-UAACUAAAUACUAUGCAAGCUGUAGGUCCU
Method in brief: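 A transcribed, DNA-blocked target RNA library […] was incubated at 33 °C for 0–8 or 0–960 min with 1 nM active affinity-purified piRISC carrying one synthetic guide, in HEPES–potassium acetate buffer with or without 500 nM GTSF1 partner protein. Uncleaved targets were then sequenced and normalised to depth and to weakly complementary targets. Data from three trials were pooled, with k3 capped at 0.0001 min^-1, and a burst-and-steady-state fit yielded the pre-steady-state cleavage rate.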

[1] = auxiliary factor: 500 nM mouse GTSF1
[2] = auxiliary factor: none (no GTSF1)
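Note: 1 nM active piRISC with 0.1 nM target library at 33 °C single turnover.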

Sequence	pre-steady-state target cleavage rate [1]	pre-steady-state target cleavage rate [2]
UCCUGGAUGUGCUUGCAUAGUAUUUAGUUUA	0.415 ± 0.024	0.0352 ± 0.0084
UCCUCUACAGCUUGCAUAGUAUUUAGUUA	1.34 ± 0.047	0.0659 ± 0.011
UCCUGGAUCAGCCUUGCAUAGUAUUUAGUUA	0.727 ± 0.041	0.0219 ± 0.0056
UCCUCCUACAGCUAGCAUAGUAAUUAGUUA	0.431 ± 0.033	0.00456 ± 0.0022
UCCUGGAUCAGCUUGCAUAGUAUUUACUAA	0.0781 ± 0.014	0.00695 ± 0.0032
UCGACCUAGAGCUUGCAUAGUAUUUACUUA	0.37 ± 0.055	0.0185 ± 0.0031
UGGACCUACAGCUAGCAUAGUAUUUACAAA	0.249 ± 0.03	0.00255 ± 0.0025
UGGACCUACAGCUUGCAUAGUAUUUUGUUA	0.958 ± 0.067	0.0448 ± 0.0072
UCGAGGUACAGCUUGCAUAGUAUUUACAAA	0.472 ± 0.062	0.00279 ± 0.0026
UCGACCUACAGCUUGCAUACUAUUUAGUUA	0.41 ± 0.024	0.0312 ± 0.0058
UCCUCCUACGCUUGCAUAGUAUUUAGUUA	1.24 ± 0.045	0.0478 ± 0.0094
UCCACCUACAGCUUGCAUAGUAUUUUGAAA	0.298 ± 0.034	0.00496 ± 0.0029
UGGACCUACAGGUUGCAUAGUAUUUUGUUA	0.638 ± 0.067	0.0242 ± 0.0046
UCCUGGUACCGCUUGCAUAGUAUUUAGUUA	0.516 ± 0.078	0.0208 ± 0.005
UCCACCAUGAGCUUGCAUAGUAUUUAGUUA	0.944 ± 0.13	0.0384 ± 0.0063
UCCUCCUACAGCUUGGAUAGUAUUUAGAAA	0.203 ± 0.031	0.00274 ± 0.0023
UCCUGGAUGAGCUUGCAUAGUAUUAUGUUA	0.194 ± 0.027	0.0102 ± 0.0042
UCCUGGAUGAGGUUGCAUAGUAUUUAGUAA	0.0901 ± 0.012	0.00316 ± 0.0026
UCCACCUACAGGUUGCAUAGAAUUUAGUUA	0.327 ± 0.04	0.00955 ± 0.0021
UCCUGGAUGUCCUUGCAUAGCAUUUAGUUA	0.0256 ± 0.0057	0.0054 ± 0.0015
UCCUGGAUGUGCUUGCAUAGAAUUUAGAAA	0.0056 ± 0.0042	0.00317 ± 0.0024
AGGACCUACAGCUUGCAUAGGAUUUAGUUA	0.0532 ± 0.011	0.00851 ± 0.0027
UCCUGGUACAGGUUGCAUAGUAUUAAGUUA	0.638 ± 0.12	0.00789 ± 0.0027
UCCUGGAACAGCAUGCAAAGUAUUUAGUUA	0.965 ± 0.051	0.0171 ± 0.0044
UCCUCCUACAGCUUGCAUAGUAAUUUGUUA	0.352 ± 0.032	0.0121 ± 0.0032
UCCUGCUACUGCUUCCAUAGUAUUUAGUUA	0.0398 ± 0.01	0.00359 ± 0.0022
UCGACCUAGAGCAUGCAUAGUAUUUAGUUA	0.802 ± 0.061	0.0225 ± 0.0038

Sequence	pre-steady-state target cleavage rate [1]	pre-steady-state target cleavage rate [2]
UCCUCCUACAGCUUGCAUACUAUUUAGUAA	0.152 ± 0.02	0.0139 ± 0.0028
UCCUGGAACAGCUUGCAAACUAUUUAGUUA	0.147 ± 0.017	0.00545 ± 0.0032
AGGACCUACAGCUUGCAUAGUUAUUAGUUA	0.235 ± 0.023	0.0166 ± 0.0039
UCCUGCAACAGGUUGCAUAGUAUUUAGUUA	1.11 ± 0.085	0.0208 ± 0.0052
AGGACCUACACCUUGCUUAGUAUUUAGUUA	1.17 ± 0.057	0.046 ± 0.0082
AGGACCUACAGCUAGCAUAGUAUAUAGUUA	0.639 ± 0.065	0.0163 ± 0.0043
UCCUCCAACAGCUUGCAUAGUAUUUAGAAA	0.43 ± 0.042	0.00609 ± 0.0021
AGGAGCUACAGCUUGCAUAGUAUUUUCAAA	0.239 ± 0.038	0.0044 ± 0.0031
UGGACCUACAGCUGCAUAGUAUUUAGUUA	1.37 ± 0.11	0.00982 ± 0.0031
UCCUGCUACAGCUUGCAUAGUAUUUAGAUA	0.337 ± 0.04	0.0122 ± 0.003
AGGACCUACAGCUUGCUUAGUAAUUAGUUA	0.8 ± 0.058	0.0154 ± 0.0047
UCCUGGAUCAGGUUGCAUAGUAUUUAGAAA	0.12 ± 0.028	0.00268 ± 0.0021
UCGACCUACAGGAUGCAUAGUAUUUAGUAA	0.952 ± 0.077	0.0079 ± 0.0021
UCCUGGUUCAGCUUGCAAAGUAUUUAGUUA	1.04 ± 0.049	0.0567 ± 0.014
UCCUGGAUGUGCUUGCAUAGUAGUUUAGUUA	0.0105 ± 0.0051	0.00437 ± 0.0031
AGGACGCUACAGCUUGCAUAGUAUUUAGUUA	1.05 ± 0.08	0.0749 ± 0.014
UCCUGGAUGUGCUUGCAUAGUAUUUAGUCUA	0.0254 ± 0.0057	0.00502 ± 0.0031
UCCUGGUACAGCUUGCAUAGUAUCUAGUUA	0.274 ± 0.04	0.0282 ± 0.0066
AGGAGCUACAGCUUGCAAAGUAUUUAGUUA	1.15 ± 0.065	0.0443 ± 0.0091
UCGACCUACAGCUUGCAUAGUAUCUAGUUA	0.92 ± 0.048	0.0466 ± 0.0068
UCCUGCUACAGCUUGCAUUGAAUUUAGUUA	0.168 ± 0.012	0.00991 ± 0.0044
UCCUGGAUGAGCUUGGAUAGUAUUUAGUAA	0.557 ± 0.076	0.0279 ± 0.0083
UCCUGCUACAGCAUGCAUACUAUUUAGUUA	0.507 ± 0.038	0.0165 ± 0.0037
UCGACCAACACCUUGCAUAGUAUUUAGUUA	1.17 ± 0.04	0.0468 ± 0.0081
UCCACCUACACUUGCAUAGUAUUUAGUUA	0.893 ± 0.031	0.0224 ± 0.0044
UCCACCUACAGCUUGCAUAGUAUUUAGUUG [g2:g27:cont:t1G]	0.399 ± 0.047	0.0371 ± 0.0065
UCCUGGAACACCUUGCAUAGUAUUUAGAUA	0.233 ± 0.048	0.00688 ± 0.0041
